According to paper PMC12065222:

Tests used:
[1] = IcAR-PD-1 mIL-2, fixed MDA-MB231, 10 µg/mL antibody; settings: glycan lost, control: WT PD-L1, fixed MDA-MB231
[2] = IcAR-PD-1 mIL-2, fixed MCF7, 10 µg/mL antibody; settings: glycan lost, control: WT PD-L1, fixed MCF7

PD-L1: N35A
other: antibody blockade of PD-L1/PD-1 interaction, other: percent blocking ([1]; Cemiplimab): 19.6%
other: antibody blockade of PD-L1/PD-1 interaction, other: percent blocking ([1]; Nivolumab): 83.2%
other: antibody blockade of PD-L1/PD-1 interaction, other: percent blocking ([1]; Pembrolizumab): 91.6%
other: antibody blockade of PD-L1/PD-1 interaction, other: percent blocking ([2]; Cemiplimab): 53%
other: antibody blockade of PD-L1/PD-1 interaction, other: percent blocking ([2]; Nivolumab): 98.6%
other: antibody blockade of PD-L1/PD-1 interaction, other: percent blocking ([2]; Pembrolizumab): 100%

Entries with a single value are a further part of the results.
